From PubChem BioAssay AID2147 (National Center for Advancing Translational Sciences (NCATS), 2009)
Several values for one entry are separate records, joined by “and”; a condition that tells them apart may be missing. Identical values can stand only once. The whole screen tested about 230,000 compounds, of which about 3,600 (1.6%) were called active. The inconclusive results got no clear call from the source; some entries with a clear call stand among them for comparison. Calls follow the shape of the dose curve; as a rule, active = well fitted inhibition curve with a large enough effect (not every such curve was filed as active); inconclusive = small, poorly fitted or top-dose-only effect, or another doubt; inactive = no such curve, though single readings can be large or run the other way. A potency beside an inconclusive call is a rough fit, not a confirmed value.

What follows are molecules tested against Lysine-specific demethylase 4E (Homo sapiens) (UniProt B2RXH2) (assay: qHTS Assay for Inhibitors of Human Jumonji Domain Containing 2E (JMJD2E)). Details: JMJD2E catalytic domain, FDH-coupled NADH fluorescence (FDH is formaldehyde dehydrogenase); series mostly up to 57.1 µM; activity change, negative = inhibition: at the top concentration.
Sequence of UniProt B2RXH2 (B2RXH2 whole entry, looked up, the tested form may be a part): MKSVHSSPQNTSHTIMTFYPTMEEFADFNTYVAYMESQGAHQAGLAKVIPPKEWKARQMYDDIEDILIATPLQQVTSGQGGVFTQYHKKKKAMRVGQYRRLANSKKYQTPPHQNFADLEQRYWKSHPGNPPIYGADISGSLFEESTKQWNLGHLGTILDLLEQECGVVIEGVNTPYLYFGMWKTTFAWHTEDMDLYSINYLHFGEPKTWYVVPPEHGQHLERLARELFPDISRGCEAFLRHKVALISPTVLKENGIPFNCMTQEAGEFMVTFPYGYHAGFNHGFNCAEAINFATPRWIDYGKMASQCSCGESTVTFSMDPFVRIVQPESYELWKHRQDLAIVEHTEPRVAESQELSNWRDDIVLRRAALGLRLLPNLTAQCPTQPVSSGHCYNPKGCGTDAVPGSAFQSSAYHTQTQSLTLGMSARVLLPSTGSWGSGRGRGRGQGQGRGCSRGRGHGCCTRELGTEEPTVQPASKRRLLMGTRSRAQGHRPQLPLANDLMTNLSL
Also: nearly all actives have a fitted effect of over 50% in size.
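For activity change, negative = inhibition in this document: 0% = wells with enzyme and -100% = buffer wells without enzyme.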
Potency is read from the fitted curve at half-maximal effect; tags tell the direction and shape of the fitted curve.

Structure (SMILES) | activity change, negative = inhibition | Potency
CCOC(=O)C1(CCCc2ccccc2)CCN(C(=O)CCCn2cncn2)CC1 | inactive: 11.6% | 
O=C(Oc1cc(-c2ccccc2)no1)c1ccc(Cl)cc1 | inactive: 3.9% | 
COc1ccc(CCNc2oc(-c3ccccc3OC)nc2C#N)cc1 |  | inconclusive: 28.2 µM [inhibitor, partial curve]
CCOc1ccc(NC(=O)CC2C(=O)N(c3ccc(OC)cc3)C(=S)N2Cc2ccccn2)cc1 (centres undefined) | inactive: -1.74% | 
COc1cccc(NC(=S)NN=C2CCCCCC2)c1 | inactive: -6.83% | 
CC(=O)NCCOc1cccc2ccccc12 |  | inconclusive: 39.8 µM [inhibitor, single point]
O=C(COc1ccc(C(=O)c2ccccc2)cc1)NCc1ccc(F)cc1 |  | inconclusive: 31.6 µM [inhibitor, single point]
O=C1COc2ccc(C(=O)COC(=O)C3CCN(S(=O)(=O)c4cccs4)CC3)cc2N1 |  | inconclusive: 28.2 µM [inhibitor, single point]
Nc1nc(Nc2ccccc2)nc(N2CCOCC2)c1[N+](=O)[O-] | inactive: -10.5% | 
O=c1c(-c2ccco2)[n+]([O-])c2ccccc2n1OCc1ccccc1[N+](=O)[O-] |  | inconclusive: 39.8 µM [inhibitor, single point]
COc1ccc2[nH]c(=O)c(CN(C(=O)COc3ccccc3)C(C)C)cc2c1 |  | inconclusive: 20 µM [inhibitor, partial curve]
O=C(CN1CCOc2ccccc21)NCc1cccs1 | inactive: -1.52% | 
Cc1ccc(C)c2[nH]c(=O)c(C(c3nnnn3Cc3ccccc3)N3CCc4ccccc4C3)cc12 (centres undefined) |  | inconclusive: 25.1 µM [inhibitor, partial curve]
O=C(Cc1ccc(Nc2nc(=S)[nH]c3ccccc23)cc1)NC1CCCCC1 |  | inconclusive: 35.5 µM [inhibitor, single point]
COc1ccc2[nH]c(C(=O)O)c(CCC(=O)O)c2c1 |  | inconclusive: 31.6 µM [inhibitor, partial curve]
Cc1ccc(Oc2nc3ccccc3n3cccc23)cc1 |  | inconclusive: 31.6 µM [inhibitor, partial curve]
OCc1cn(-c2ccccc2)nc1-c1cccnc1 | inactive: 4.25% | 
COC(=O)CCC(=O)OC1(C)C(=O)C=C2C=C(C3CC3)N(c3cccc(C#N)c3)C=C2C1=O (centres undefined) |  | inconclusive: 31.6 µM [inhibitor, partial curve] and inconclusive: 3.16 µM [inhibitor, partial curve]
CC(C)C(C(=O)O)N1C(=O)/C(=C/C=C/c2ccco2)SC1=S (centres undefined) |  | inconclusive: 14.1 µM [inhibitor, partial curve]
